# ± gives the standard deviation of the averaged measurements. The list shows a part of the results.
# Tested on: PfAP2-LT AP2 domain (GST-tagged)
# Experiment: gcPBM binding intensity (ln(normalized median fluorescence intensity)); higher = stronger DNA binding
# Method in brief: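 GST-tagged P. falciparum DNA-binding domains produced in E. coli were incubated for 1 h on an Agilent 4 × 180k array of primer-extended double-stranded 36-bp intergenic genomic probes with negative controls. Binding intensity is the highest Masliner-normalised natural-log median intensity across replicate spots of either probe orientation, with bound protein detected by Alexa488 anti-GST antibody at 488 nm.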
row,Sequence,gcPBM binding intensity (ln)
1,TATGGAGAAATAAATAGTACGTATTTTATTTAAAAA [XGTACX_site3129],8.61 ± 0.47
2,AAAAATATAAAAATAGCACACATATATACATATATA [CACACA_site7901],8.96 ± 0.45
3,TTTCCTAGCACATGCACACAAAAAAAAAAAAAAAAA [CACACA_site1404],8.82 ± 0.45
4,TATAAAAATATTGAAAGTACTTATTAAAATATTATT [XGTACX_site3701],8.46 ± 0.46
5,ATGTTCGATGATAAATGTACAAAAATAATGGAAGTA [XGTACX_site1916],8.99 ± 0.36
6,CTTGCAAAAAGTATATGTACATATATATATATATAT [XGTACX_site5792],9.74 ± 0.042
7,ATTTTAGGAAAAAAAAGTACATATAATTTTTTATAT [XGTACX_site6954],8.26 ± 0.47
8,TGTTTGCTTATGTGTTAAATATATATATATATATAT [TGCATGCA_negctrl_site218],9.25 ± 0.34
9,CGAACACAAACACAAACACACATCAGATATAAATAT [CACACA_site6736],9.34 ± 0.43
10,TTTTTTTTGATATATACACACAATAAATAAATATAA [CACACA_site7400],8.45 ± 0.41
11,ATTTATTATTATATCACACATAATATATTAAATGAT [CACACA_site5821],8.64 ± 0.37
12,TATATTTCTTCTATAACATGCAGATATATGAAAATA [TGCATGCA_site971],8.3 ± 0.36
13,TATAAATAGAGACACACACACATATAAATAAATATT [CACACA_site7854],9.68 ± 0.28
14,ATATATTTTTTGAATACACACATATTATCTGTAATA [CACACA_site4826],8.95 ± 0.36
15,CTATAATATGGTATTACACACTGTTATAAGTATGGC [CACACA_site7068],8.95 ± 0.36
16,AGAATTATTTTATGTTTGCACTTTTTTTTTCTATAA [GTGCAC_site9876],8.84 ± 0.53
17,ATTATTAACATATATATACACACGAAAAAATTATAT [CACACA_site625],8.96 ± 0.35
18,TAATGAAATATTATGTGTACTTAAAAATTATTAAAT [XGTACX_site5261],8.41 ± 0.41
19,TATTCCTAATTGACAACACACACAACAAAAAAGGGA [CACACA_site8350],9.37 ± 0.31
20,TTACACAAATAGCTGCATTTATAAAATACAATTAAA [CACACA_negctrl_site241],8.56 ± 0.41
21,TGGGCGTCATAATGAACACACAATTATATTATGACT [CACACA_site3910],8.91 ± 0.38
22,ATATATATAATAATATGTACGGAAAAAGCTTAAGCT [XGTACX_site5661],8.82 ± 0.42

row,Sequence,gcPBM binding intensity (ln)
1,ATATATATATATTTATGTACGAATATGTTTAATTTA [XGTACX_site3986],8.74 ± 0.35
2,TTTTGTCAATTTTAGATTTTTCAATACATGGATATT [CACACA_negctrl_site319],8.59 ± 0.55
3,AAATATATATATTTACGTACATATATACAAATAGAG [XGTACX_site6067],8.84 ± 0.39
4,TTATAAAGAACACAGACACACAAAGAAAGAACCAAT [CACACA_site4175],9.36 ± 0.43
5,CACAAATAAATACATACACACATATATACTCATATA [CACACA_site4379],9.28 ± 0.33
6,TGTCACTACAAATGAGTGCATTAAATAATTTGGAAA,8.6 ± 0.45
7,AATATTATTTATATTTGTACACAGTAATATAAAATA [XGTACX_site4884],8.48 ± 0.34
8,ATATGCAAAGAGTATAATCAAAATGTAAATAAATAA [GTGCAC_negctrl_site141],8.95 ± 0.45
9,CCATAGATATTTTATACACACATATAATATATTAAG [CACACA_site4363],8.89 ± 0.36
10,AATATATTCCACATGTGTACATATATATATATATAT [XGTACX_site8006],9.68 ± 0.34
11,AAAAATAAAGAAACAGGTACGCATATATTAAGATAT [XGTACX_site8097],9.06 ± 0.41
12,TTTCCTTCTACAAAAAATTTTATCAAGAGGAAGTAC [CACACA_negctrl_site926],8.29 ± 0.38
13,AATATATATCATCACACACACATACATAAATATATA [CACACA_site184],9.7 ± 0.3
14,AGTTTATTTGTAAAAAGTACATATTTAAGAAAACTT [XGTACX_site2318],8.51 ± 0.36
15,TTCTAACTCTAACAAGTGCAATATATATACATAATA,8.46 ± 0.39
16,AAATTTGGCAAACACACACACACACCCACACCCACA [CACACA_site8095],10.4 ± 0.19
17,GAAAATAAAAAAAATAAAAAAAATAAAAAAAATTAT [XGTACX_negctrl_site443],8.48 ± 0.55
18,TAAATATCTAAAGACTGTACAATTAAATATAAACAT [XGTACX_site1450],8.76 ± 0.4
19,TTTTGTAACCTATGCACGCACACAAGAAAAAAACAA [CACACA_site3776],8.89 ± 0.33
20,TATATTATATATATGTGTACATATAAATGTAACAAA [XGTACX_site5025],8.6 ± 0.47
21,ATAGAATACATATATGAACACACAGAGTTTTAAAAA [CACACA_site8879],9.01 ± 0.56
22,AATACATATAAAAGTACACACACACCCATATATATA [CACACA_site8220],9.97 ± 0.13

row,Sequence,gcPBM binding intensity (ln)
1,TTTTTTTTTTGATGTTGTACATATATACTATATAAT [XGTACX_site1332],8.7 ± 0.51
2,TTTTAATGATATATGAGTACACATTGTTTTTTATAA [XGTACX_site1072],8.47 ± 0.36
3,ATATAATGATGGAAAAGAAAAGAAATAAAAAAAAAA [CACACA_negctrl_site1170],8.56 ± 0.57
4,AAATAATAAAACAACACACAAATAGTTAAAATAGAA [CACACA_site5007],9.12 ± 0.52
5,TTGACATATAAGATATGTACTAATACACACACATAT [XGTACX_site1904],9.46 ± 0.42
6,ACATTCTATATATACACACATACATAATAAAGAAAG [CACACA_site2771],9.05 ± 0.4
7,CATATATAGATATATACACACATACATACATACATA [CACACA_site7748],9.3 ± 0.27
8,TGCATATGCATTATTTGTACATATGTAGATAATTAT [XGTACX_site6930],8.85 ± 0.35
9,AATAAAATAAATATATGTACATATATATAACCATTA [XGTACX_site5549],8.88 ± 0.44
10,AAAAATTACAAATACAAACACACAAATGTTTTTCAT [CACACA_site3551],8.8 ± 0.42
11,AGAGAAAGAAGGGAGAAAAAATAAAATAAAATAAAA [GTGCAC_negctrl_site299],8.69 ± 0.67
12,AATAAAAAAAAACTCATGCACACAATATTATGAAAA [CACACA_site664],8.94 ± 0.5
13,TATATATATATATATATTTTAAATGATATAAATGGT [TGCATGCA_negctrl_site152],8.96 ± 0.3
14,AATTAATTAAATTAATGTACACATATATTTGTATTC [XGTACX_site2341],8.78 ± 0.44
15,CCACATTAAAAAAAAACACACATATATTATATATAT [CACACA_site1155],8.89 ± 0.42
16,AATACATGAATATGTAGTACAGAAAAAAAAAATATA [XGTACX_site1945],8.95 ± 0.52
17,GTTACAGAGAATGTTGTGCACATATCAATAATATAT [GTGCAC_site9671],9.03 ± 0.4
18,AAAATGACATAATGGGGAATAGACATATACATAAAT [CACACA_negctrl_site1669],9.05 ± 0.45
19,ATAATAATAAAAATTATACATAAGTATATGCACATA [XGTACX_negctrl_site583],8.69 ± 0.37
20,TATAAACCATAATTAACACACAAAATAAGTTACATA [CACACA_site3227],8.94 ± 0.45
21,ACATATGGTATTTAAACACACAAAAAAGAAAGAAAA [CACACA_site991],8.95 ± 0.47
22,TTTTGCTTTTTTTTTCTTTTTTGTTTTATATATATT [CACACA_negctrl_site103],8.74 ± 0.45

row,Sequence,gcPBM binding intensity (ln)
1,AAATGGTAAGAAAATAAATAAAGTTCTACCACATAA [CACACA_negctrl_site1542],8.92 ± 0.51
2,TAGAAAGAATATAATTGTACAAATGTTGATAGATAA [XGTACX_site7259],8.8 ± 0.52
3,ATTTTTCTTTTATTAACACACATATAAATAAATACA [CACACA_site2876],8.6 ± 0.4
4,ATATATATATATATATATATATATGTTTGATTTTTT [XGTACX_negctrl_site98],10.05 ± 0.028
5,AATAAAAATAGGAATACGCACACGATGATTAATTTA [CACACA_site1836],9 ± 0.51
6,AATTAACCCTAATTTTGTACATATTCCTTTTCTCAT [XGTACX_site46],9.01 ± 0.43
7,GTTACTATGATTAATGCATGCAAATACCAAAAAAAA [TGCATGCA_site590],8.95 ± 0.33
8,TATACCACACGATATACACACTTGTAGACATCTTTT [CACACA_site6232],9.04 ± 0.33
9,TTATATTCTAGAGACACATGCGATTTTTTATTTTAT [TGCATGCA_site649],8.9 ± 0.3
10,TGGAATAATCCGCGTACACACATATATATATTAAGA [CACACA_site4253],9.1 ± 0.4
11,AAAATAAAAAAAAACACACACATACAAGCATATATA [CACACA_site1585],9.63 ± 0.26
12,AATTAATGGCTAAAGGTGCACAATATATATATTACA,9.11 ± 0.52
13,AAAAAAAAATTTAAGGGTACATACAAATATATATAT [XGTACX_site5078],8.73 ± 0.43
14,TCCCTTCATCTTTTATGTACTAAAAAATTGAATAAT [XGTACX_site2172],8.39 ± 0.3
15,TAATACGAATGAGGCACACACCTAGTATACATGCTT [CACACA_site6438],9.09 ± 0.4
16,AATTAAAATTTTTGAAGTACACTCAAAATAAGTTAT [XGTACX_site4490],8.43 ± 0.46
17,CTTTTGAACAGTTCATGTACTCAATTTTTTAATAGT [XGTACX_site6498],8.61 ± 0.49
18,TAATACCTATGGTATAGTACGTATTATTTTATAGAG [XGTACX_site2078],8.58 ± 0.47
19,TTTTTTTTTTTGAAATGTACATTCCAAAAACTGATA [XGTACX_site1495],8.61 ± 0.5
20,TATATATATATATATTTTTTTTTTTTATGCACATGG [CACACA_negctrl_site1573],9.6 ± 0.17
21,TGTTAATTCTTAAGAATTTCCATAATTTCTTCTTTT [CACACA_negctrl_site1065],8.48 ± 0.4
22,TATTTATAAAAAAATACATGCATTTTTTTTTTTTTT [TGCATGCA_site65],8.36 ± 0.36
